Laboratory results reported in PubChem BioAssay AID504332 (National Center for Advancing Translational Sciences (NCATS), 2011).
Hit rate of the full screen: of about 350,000 compounds, about 31,000 (8.9%) were called active. The inconclusive results got no clear call from the source; some entries with a clear call stand among them for comparison. Calls come from the whole dose curve; as a rule, active = well fitted inhibition curve with a large enough effect; inconclusive = small, poorly fitted or top-dose-only effect; inactive = no such curve, though single readings can be large or run the other way. Potencies of inconclusive entries are doubtful fits and often do not repeat.
% is set by controls: 0 for no effect and ±100 for the full control effect; potency is the fitted concentration of half-maximal effect; tags give direction and shape of the fitted curve.
Note: nearly all actives have a fitted effect of over 75% in size.

The compounds below were run against Histone-lysine N-methyltransferase EHMT2 (Homo sapiens) (UniProt Q96KQ7) (assay: qHTS Assay for Inhibitors of Histone Lysine Methyltransferase G9a). Conditions: G9a H3K9 monomethylation, AlphaScreen, 2 h; activity, negative = inhibition: at 59 µM (top of the series) unless noted.
UniProt Q96KQ7, sequence (Q96KQ7 whole entry, looked up): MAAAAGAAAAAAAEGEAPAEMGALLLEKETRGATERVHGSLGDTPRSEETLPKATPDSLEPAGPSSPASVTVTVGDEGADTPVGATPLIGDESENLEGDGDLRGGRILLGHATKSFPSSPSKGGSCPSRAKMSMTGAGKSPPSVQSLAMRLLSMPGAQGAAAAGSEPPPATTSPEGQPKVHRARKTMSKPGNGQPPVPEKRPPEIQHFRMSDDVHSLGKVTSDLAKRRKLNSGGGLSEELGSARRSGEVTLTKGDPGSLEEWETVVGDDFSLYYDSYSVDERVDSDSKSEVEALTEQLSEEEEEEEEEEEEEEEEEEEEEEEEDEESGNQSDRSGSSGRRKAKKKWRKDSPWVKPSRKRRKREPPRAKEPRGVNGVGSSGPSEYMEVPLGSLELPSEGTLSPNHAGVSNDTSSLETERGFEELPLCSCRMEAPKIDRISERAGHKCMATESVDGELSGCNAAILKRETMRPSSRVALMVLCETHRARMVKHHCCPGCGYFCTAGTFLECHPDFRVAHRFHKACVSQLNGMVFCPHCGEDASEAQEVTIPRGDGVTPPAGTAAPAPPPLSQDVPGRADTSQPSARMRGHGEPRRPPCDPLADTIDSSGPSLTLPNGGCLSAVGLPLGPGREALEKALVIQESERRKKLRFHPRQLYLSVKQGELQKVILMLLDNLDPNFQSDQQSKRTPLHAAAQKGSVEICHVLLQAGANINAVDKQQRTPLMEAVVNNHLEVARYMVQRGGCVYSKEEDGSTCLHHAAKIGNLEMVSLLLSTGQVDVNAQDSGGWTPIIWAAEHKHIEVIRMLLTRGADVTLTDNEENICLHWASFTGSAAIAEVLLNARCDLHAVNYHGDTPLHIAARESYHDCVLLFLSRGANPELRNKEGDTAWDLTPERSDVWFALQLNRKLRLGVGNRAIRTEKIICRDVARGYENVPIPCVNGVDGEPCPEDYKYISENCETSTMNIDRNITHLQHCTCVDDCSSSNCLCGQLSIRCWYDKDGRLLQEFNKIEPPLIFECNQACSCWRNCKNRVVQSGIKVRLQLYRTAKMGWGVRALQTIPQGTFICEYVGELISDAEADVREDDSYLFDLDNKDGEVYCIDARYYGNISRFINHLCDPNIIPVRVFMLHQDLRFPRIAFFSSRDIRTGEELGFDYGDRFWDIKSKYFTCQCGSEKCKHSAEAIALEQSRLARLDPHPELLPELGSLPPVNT
Outline: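 G9a (20 nM) preincubated 15 min RT with compounds, then 500 nM biotinylated H3K9 peptide and 20 uM SAM added; 2 h RT reaction. Monomethyl-H3K9 product detected by AlphaScreen with anti-H3K9me1 antibody, streptavidin donor and anti-rabbit IgG acceptor beads.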
For `O=C(CCCn1cncn1)N1CCCC(Nc2ccc(F)cc2)C1` (stereo not drawn), the Potency was inconclusive: 31.6 µM [inhibitor, partial curve].
In the case of `Cc1c(N2C(=O)C(=O)/C(=C(/O)c3ccc(Cl)cc3)C2c2ccccc2)c(=O)n(-c2ccccc2)n1C` (stereo not drawn), the “activity, negative = inhibition” value is reported as inactive: -18.6%.
For `CC1(C)Cc2c(c(-c3ccco3)nc3sc4c(NCCN5CCOCC5)ncnc4c23)CO1`, the Potency was active: 17.8 µM.
`CC1(C)CC2(C)Nc3ccccc3N2C(=S)N1` (stereo not drawn) was tested, and the “activity, negative = inhibition” value was inactive: 5.61%.
`CCn1cc(Cl)c(C(=O)NNC(=O)CCn2cc([N+](=O)[O-])cn2)n1` was tested, and the “activity, negative = inhibition” value was inactive: -12.9%.
`Cc1ccc(Cl)cc1NC(=O)c1ccc2snnc2c1` was tested, and the “activity, negative = inhibition” value was inactive: 4.5%.
In the case of `CN=c1scc(-c2ccc(Br)cc2)n1C`, the Potency is reported as inconclusive: 20 µM [inhibitor, partial curve, poor fit].
In the case of `COc1cccc(C(=O)NCCSCc2c(F)cccc2Cl)c1`, the activity, negative = inhibition is reported as inactive: -2.7% [at 0.501 µM].
`O=C(COC(=O)c1ccc(Cl)c(S(=O)(=O)N2CCCC2)c1)NC1CCCC1` was tested, and the Potency was inconclusive: 39.8 µM [inhibitor, single point].
`CC(C)(C)Cc1nnc(NS(=O)(=O)c2ccc(F)cc2)s1` was tested, and the Potency was inconclusive: 28.2 µM [inhibitor, single point].
For `Cc1c(NC(=O)OCCNC(=O)COc2c(Cl)cccc2Cl)sc(=S)n1C`, the Potency was inconclusive: 6.31 µM [inhibitor, single point].
With `CN(C)CCn1c2c(c(SCC(=O)Nc3ccc4c(c3)OCCO4)nc1=O)CCC2` the Potency was inconclusive: 79.4 µM [inhibitor, partial curve, poor fit].
In the case of `COc1cc(C(=O)Nc2nnc(SC)s2)c([N+](=O)[O-])cc1OC`, the Potency is reported as active: 31.6 µM.
With `O=C(/C=C/c1ccc(Cl)cc1Cl)N1CCN(c2ccc([N+](=O)[O-])c(N3CCOCC3)c2)CC1` the Potency was inconclusive: 3.16 µM [inhibitor, full curve].
For `O=C(Nc1ccc(-c2nc3cccnc3s2)cc1)c1ccco1`, the Potency was inconclusive: 44.7 µM [inhibitor, partial curve, poor fit].
For `COc1cc(/C=N/Nc2ccc(C)cc2)cc(Br)c1O`, the Potency was active: 3.98 µM.
For `COc1ccc(-c2nc(C#N)c(NCc3ccc(C)cc3)o2)cc1OC`, the “activity, negative = inhibition” value was inactive: -25.5%.
In the case of `O=C(CCN1C(=O)c2ccccc2C1=O)N1CCN(c2ccccc2)CC1`, the “activity, negative = inhibition” value is reported as inactive: 6.5% [at 102 µM].
`O=[N+]([O-])c1ccccc1Nc1nc(-c2cccnc2)cs1` was tested, and the Potency was inconclusive: 35.5 µM [inhibitor, partial curve, poor fit].
For `Cc1ccc(NC(=O)COC(=O)CNC(=O)c2cccc([N+](=O)[O-])c2)cc1S(=O)(=O)N1CCCCCC1`, the Potency was inconclusive: 89.1 µM [inhibitor, single point].
With `C/C(CCN1CCCCc2nc(C)c(C)cc21)=N\O[C@@H](C)CN1CCCCc2nc(C)c(C)cc21` the Potency was inconclusive: 70.8 µM [inhibitor, partial curve, poor fit].
`Cc1ccc(S(=O)(=O)Nc2ccnc3ccccc23)cc1` was tested, and the “activity, negative = inhibition” value was inactive: 3.6%.
In the case of `COc1ccc(/C=C2\SC(N)=NC2=O)cc1Cl`, the “activity, negative = inhibition” value is reported as inactive: -28.2% [at 102 µM].
`CC1=C(C(N)=O)C(c2ccc(F)cc2)n2nc(-c3ccc(N(C)C)cc3)nc2N1` (stereo not drawn) was tested, and the “activity, negative = inhibition” value was inactive: -1.88%.
For `CC(=O)N(c1ccc2oc(=O)sc2c1)S(=O)(=O)c1ccc(C(=O)O)cc1`, the Potency was active: 17.8 µM.
`CCN(C(=O)c1cc(S(=O)(=O)N2CCc3ccccc32)cn1C)c1cccc(C)c1` was tested, and the “activity, negative = inhibition” value was inactive: -3.65%.
In the case of `C=CCn1c(-c2ccc(=O)n(Cc3ccccc3)c2)n[nH]c1=S`, the Potency is reported as active: 17.8 µM.
`Cc1ccc2c(c1)-c1c(ssc1=S)C(C)(C)N2C(=O)CN1C(=O)c2ccccc2C1=O` was tested, and the Potency was inconclusive: 7.94 µM [inhibitor, full curve, poor fit].
In the case of `CCOc1ccc(/C=N/n2c(COc3ccccc3)n[nH]c2=S)cc1OC`, the Potency is reported as active: 8.91 µM.
`Cc1ccc(Cl)cc1N1CCN(C(=O)c2cccn2-c2nnc(N3CCCC3)s2)CC1` was tested, and the “activity, negative = inhibition” value was inactive: -28.5%.
`O=C(/C=C/c1ccccc1)CC(=O)c1ccccc1O` was tested, and the Potency was active: 15.8 µM.
`CC1CCCC(C)N1/N=C/c1ccc(C#N)cc1` (stereo not drawn) was tested, and the Potency was inconclusive: 50.1 µM [inhibitor, partial curve, poor fit].
With `COc1ccc2cc(-c3[nH]ncc3CN3C[C@@H]4CCC[C@H]3C4)ccc2c1` the “activity, negative = inhibition” value was inactive: -6.26% [at 102 µM].
In the case of `CCOc1ccccc1NC(=O)CN1c2cccc3cccc(c23)S1(=O)=O`, the Potency is reported as inconclusive: 31.6 µM [inhibitor, single point].
For `CC(C)[C@H](NC(N)=O)C(=O)Nc1cccc(S(=O)(=O)N2CCOCC2)c1`, the Potency was active: 35.5 µM.
In the case of `Cc1cccc(N)c1-c1c(C)cccc1N`, the Potency is reported as inconclusive: 56.2 µM [inhibitor, single point].
In the case of `CC(=O)/C(=N/Nc1cccc(Cl)c1)N1CCOCC1`, the Potency is reported as inconclusive: 3.16 µM [inhibitor, partial curve, poor fit].
For `CN(CC(=O)Nc1cccc(F)c1)C(=O)CCCn1c(=O)oc2ccccc21`, the activity, negative = inhibition was inactive: 6.8% [at 0.501 µM].
In the case of `Cc1ccc2ncc(C(=O)c3ccc(C)c(C)c3)c(S(=O)(=O)c3ccccc3)c2c1`, the “activity, negative = inhibition” value is reported as inactive: -31%.
For `O=C(Nc1ccccc1C(=O)Nc1ccc2c(c1)OCO2)c1cccs1`, the Potency was inconclusive: 39.8 µM [inhibitor, single point].
With `CCOC(=O)c1cnc2nc(C)[nH]n2c1=O` the Potency was inconclusive: 1.26 µM [inhibitor, full curve, poor fit].
`Cc1sc2ncnc(SCC(=O)NC(=O)NCc3ccco3)c2c1C` was tested, and the Potency was active: 50.1 µM.
For `NNc1ccc(Cc2ccc(Cl)cc2Cl)nn1`, the “activity, negative = inhibition” value was inactive: -24.3% [at 102 µM].
In the case of `O=C(Nc1ccccc1F)c1ccc2nc(N3C(=O)CCC3=O)sc2c1`, the Potency is reported as inconclusive: 31.6 µM [inhibitor, partial curve, poor fit].
In the case of `Cc1nn(CC(=O)N2CCOCC2)c(=O)c2nn(-c3ccccc3)c(C)c12`, the “activity, negative = inhibition” value is reported as inactive: 14.8% [at 102 µM].
`COc1ccccc1C1CCN(C(=O)c2ccccc2)CC1` was tested, and the “activity, negative = inhibition” value was inactive: 24.9% [at 102 µM].
`CC1CN(C(=O)N2CCC(C(=O)NCc3ccco3)CC2)c2ccccc2O1` (stereo not drawn) was tested, and the Potency was inconclusive: 8.91 µM [inhibitor, partial curve, poor fit].
For `Cc1nn(C)c(C(=O)NNC(=S)NCc2ccco2)c1Cl`, the Potency was inconclusive: 35.5 µM [inhibitor, single point].
In the case of `CCc1ccc(N2C(=O)C(Cl)=C(N3CCOCC3)C2=O)cc1`, the Potency is reported as inconclusive: 89.1 µM [inhibitor, single point].
For `O=C(/C=C/c1ccccc1)N1CCOCC1`, the activity, negative = inhibition was inactive: 10.9% [at 12.7 µM].
For `COc1ccc(NC(=O)CSCC(=O)N(C)CCOc2ccc(Cl)cc2)cc1`, the activity, negative = inhibition was inactive: 2.87% [at 0.501 µM].
With `O/C(=C\c1nc2ccccc2nc1/C=C(\O)c1ccccc1)c1ccccc1` the Potency was inconclusive: 8.91 µM [inhibitor, partial curve, poor fit].
With `CC(=O)Oc1cccc(C(=O)O)c1OC(C)=O` the activity, negative = inhibition was inconclusive: -61.8% [inhibitor] [at 2.33 µM].
In the case of `CCN(CC)S(=O)(=O)c1nnc(NC(=O)c2ccc(C)cc2)s1`, the Potency is reported as inconclusive: 2.82 µM [inhibitor, full curve, poor fit].
`O=C(CSc1nccn1-c1ncc(C(F)(F)F)cc1Cl)c1ccc(Br)cc1` was tested, and the activity, negative = inhibition was inconclusive: -67.2% [inhibitor].
For `NCCCC[C@@H](C(=O)N1CCNCC1)n1cc(CCC(=O)O)nn1`, the activity, negative = inhibition was inconclusive: -81.6% [inhibitor].
In the case of `Cc1[nH]c2ccccc2c1Cc1nnc(SCC(=O)NCc2ccco2)o1`, the Potency is reported as inconclusive: 31.6 µM [inhibitor, single point].
`COc1ccc(S(=O)(=O)Nc2nnc(Cc3ccc(OC)c(OC)c3)s2)cc1` was tested, and the “activity, negative = inhibition” value was inactive: -48.8% [at 102 µM].
`CNC(=O)c1cc2cc(OC)ccc2oc1=O` was tested, and the “activity, negative = inhibition” value was inactive: 13.1% [at 102 µM].
With `O=C(CCc1ccccc1)NC(=S)Nc1cccc(C(=O)O)c1` the Potency was inconclusive: 56.2 µM [inhibitor, single point].
In the case of `COc1ccccc1N1CCN(Cc2nc(-c3cc(OC)c(OC)c(OC)c3)no2)CC1`, the Potency is reported as inconclusive: 39.8 µM [inhibitor, partial curve, poor fit].
In the case of `Cc1cccc(OCCNC(=S)NC(=O)c2cccnc2)c1`, the Potency is reported as inconclusive: 0.158 µM [inhibitor, full curve, poor fit].
In the case of `COC(=O)c1ccccc1S(=O)(=O)Nc1ccc2cn[nH]c2c1`, the Potency is reported as active: 44.7 µM.
`O=C(Nc1nnc(SCC(=O)N2CCOCC2)s1)c1ccccc1` was tested, and the Potency was active: 10 µM.
In the case of `Cc1c(Cl)ccc2c1NC(=O)C21NC(CCC(N)=O)[C@H]2C(=O)N(c3ccc(Cl)cc3)C(=O)[C@H]21` (stereo partly drawn), the Potency is reported as active: 39.8 µM.
`CCOc1ccccc1-c1nc2c([nH]1)c(=O)n(C)c(=O)n2C` was tested, and the activity, negative = inhibition was inactive: 28.3% [at 2.33 µM].
`O=C(O)CCc1ccc(-c2ccc(Br)cc2)n1CC(=O)O` was tested, and the activity, negative = inhibition was inconclusive: -75% [inhibitor].
`COc1cccc(-c2ccc(SCC(=O)N3CCc4ccccc43)nn2)c1` was tested, and the “activity, negative = inhibition” value was inactive: -3.03% [at 102 µM].
`Cc1ccc(S(=O)(=O)N2CCN(C(=O)c3ccc(S(=O)(=O)N4CCCC4)cc3)CC2)cc1` was tested, and the Potency was inconclusive: 44.7 µM [inhibitor, partial curve, poor fit].
For `O=C(Nc1ccc2ncccc2c1)c1ccccc1Br`, the Potency was inconclusive: 89.1 µM [inhibitor, single point].
In the case of `Cc1cc(C)[n+](-c2ccc(C(C)C)cc2)c2[nH]c(=O)[nH]c(=O)c12`, the Potency is reported as inconclusive: 89.1 µM [inhibitor, single point].
With `O=C(C1=C(O)C(=O)N(c2ncccn2)C1c1cccc(Cl)c1)c1ccco1` (stereo not drawn) the Potency was active: 17.8 µM.
In the case of `CC1CCC2(CC1)NC(=O)N(CC(=O)Nc1cccc(S(=O)(=O)N3CCCC3)c1)C2=O` (stereo not drawn), the activity, negative = inhibition is reported as inactive: -87.4% [at 12.7 µM].
